The source gives no read counts; variants with many changes may rest on few reads.

B1: LINE1-mini (parent)
chain: GGCAGAGCUCAACACAGCGUGGCAAAGUGGCUGUGGCUAGACUGCC

The data set covers variants of B1. Kind of data set: self-cleavage, relative activity (ratio to wild type); higher = more cleavage; in vitro, sequencing; the parent is a self-cleaving ribozyme.
Regarding G5A G22C U34C G35U C37A, the self-cleavage turned out to be 0.07.

In the case of G5A G17A G36U U38G C42A, the self-cleavage was found to be 0.01. Regarding G5A G7C C37A G40U, the self-cleavage came out at 0.2. As for G5A C8G G17U U32G G33C C46G, the self-cleavage worked out at 0.05. G5A C13G C23U: the self-cleavage worked out at 0.03.

With G5A C15A G27C C37G G44A, the self-cleavage worked out at 0.05. With G5A G17U U38C, the self-cleavage turned out to be 0.05.

For the variant G5A C18A U38A, the self-cleavage came out at 0.11.

Take G5A U9G A26C: the self-cleavage was determined as 0.09. Then G5A G17C G30A C31U G40U C42A C46A, with 0.04; and G5A C13A A14G A25U, with 0.22. Next, G5A A14U G21C A24U C37U G40U A41U: 0.14; G5A G36U A41G: 0.07; G5A C15U G27U U43C: 0.11.

On to G5A C8G A12G, for which the self-cleavage is 0.07.

Consider G5A C8G G19U U28C, for which the self-cleavage was 0.09.

For G5A G7U A39G G40A, the self-cleavage was determined as 0.16. As for G5A C8A U20G C31G A39G, the self-cleavage stood at 0.04. As to G5A A26C U34A, the self-cleavage turned out to be 0.23. Then G5A U9A A11C G29C, with 0.05.

With G5A C13U A26C G29A C37U, the self-cleavage amounted to 0.04.

Take G5A C8A G29C: the self-cleavage worked out at 0.37. In the case of G5A C8A A16C U32A, the self-cleavage came out at 0.14. On to G5A C15U U34A, for which the self-cleavage was found to be 0.25. Next, G5A C10A G29A C37G: 0.06; G5A G7U A12G A24U A39C A41C: 0.07; G5A A16C A26U: 0.01. Then G5A G7A C10A A14C C46A, with 0.63; and G5A G27C G30C, with 0.1; and G5A A24U U43A, with 0.11. For G5A G36U G40C, the self-cleavage came to 0.06. Then G5A G22A A24U, with 0.1.

For G5A C8U C15A C18G G19U, the self-cleavage stood at 0.1. Regarding G5A G19U U28A G35C, the self-cleavage worked out at 0.06. For the variant G5A A26U G40U, the self-cleavage came to 0.02. As for G5A A25G U34A G35C, the self-cleavage was found to be 0.01.

With G5A C8A A16C G22A, the self-cleavage is 0.24. Next, G5A G17U G21A: 0.04; G5A C8G C18U A39U: 0; G5A C10G C13U C15U A24G G35C G36A: 0.01.

G5A C13A G17A C23A G30C A41U G44C: the self-cleavage is 0.01.

As to G5A A14G G19U U28A G33C U43A, the self-cleavage worked out at 0.01. Next, G5A A39C A41G: 0.14. In the case of G5A C8U G21A, the self-cleavage turned out to be 0.09. Then G5A C8A C23U U34G, with 0.4.

For G5A A26U C37A C45A, the self-cleavage was 0.03. On to G5A C31A U34C G44C, for which the self-cleavage came to 0.

Turning to G5A A16G G19A C23U G29A U43G C46U, the self-cleavage worked out at 0. G5A G27C G29U C45G: the self-cleavage is 0.03. In the case of G5A A14G U20A G30A G35U G36U C42U, the self-cleavage turned out to be 0.02. For the variant G5A C13A C18A G40A, the self-cleavage was 0.03. Regarding G5A C10A U38G, the self-cleavage stood at 0.03. For G5A A16C U38C, the self-cleavage was 0.09. Take G5A U9A G19C U32G: the self-cleavage came to 0.01. Next, G5A G22U G35U A41C C42G: 0.03; G5A C13G C18U A26C G29A A41U: 0.03; G5A G29C G40A C42U: 0.07. G5A G19A G22C: the self-cleavage turned out to be 0.08.

Take G5A A14U G21C: the self-cleavage is 0.02. Regarding G5A U9A A12U C15U U34A, the self-cleavage is 0.13. Then G5A G7C G30A C42G, with 0.08; and G5A G29C C46A, with 0.01. Take G5A C10A G17C C18A A26U: the self-cleavage was determined as 0.03. For the variant G5A U9A G29U U38C A39C, the self-cleavage came to 0.11. Then G5A C37A U38C, with 0.04; and G5A C13U A24G, with 0.15.

Consider G5A A14U G22A C31A, for which the self-cleavage was determined as 0.08. As to G5A G21U G29C G33U, the self-cleavage was 0.09. Then G5A U9G C13G A24C C37A G40U A41U, with 0.08.

Regarding G5A A24U G35U, the self-cleavage is 0.07. As for G5A G17C C18G A25G G44A, the self-cleavage is 0.04. As for G5A G7U U38A G44U, the self-cleavage worked out at 0.21. Then G5A A14G G19U C23G C45A, with 0.02; and G5A C15G G21C U32G, with 0.06. As to G5A C13A A14G G19A, the self-cleavage amounted to 0.09. Then G5A G7C A24C A25U U32C C42A C45G, with 0.02. Next, G5A G7A A14G C15U C31G: 0.16; G5A A16G G21A G22C C46U: 0.03; G5A G7U G27U G33U U34C U38C: 0.08.

With G5A G27U C46U, the self-cleavage turned out to be 0.03. In the case of G5A G36U A39U C46G, the self-cleavage is 0.04. For the variant G5A C8G C10U A26G G27U C31G, the self-cleavage came out at 0.05.

G5A C13A A26C U32C: the self-cleavage turned out to be 0.16. For the variant G5A G36U G44A, the self-cleavage worked out at 0.09. As for G5A C10A C23A U28G, the self-cleavage came to 0.01. In the case of G5A A25C G33U, the self-cleavage was found to be 0. As for G5A C15A A16G, the self-cleavage stood at 0.07.

G5A C13A G29A: the self-cleavage came out at 0.07.

As for G5A G29C G40A C45U, the self-cleavage amounted to 0.01. Next, G5A G19U C23G G27U: 0.03; G5A C15A A16U C18A A25U G35C: 0.02. Take G5A C23U G29A A41U C46U: the self-cleavage was 0.04. Then G5A G36A C46G, with 0.04; and G5A G33C A41C, with 0.03.

In the case of G5A C15U C42G, the self-cleavage came out at 0.04. As for G5A G29U C31A G35U, the self-cleavage was determined as 0.05. For G5A G7U G27U, the self-cleavage came to 0.28. For the variant G5A G22C U34C, the self-cleavage is 0.1. G5A A16U C18A: the self-cleavage was 0.01. Next, G5A G7U G19C G21A A24U C45G: 0.05; G5A C10A C18G: 0.06; G5A C10G U28G G30U U38G: 0.03. Turning to G5A G21C U32G A41C, the self-cleavage worked out at 0.04. Regarding G5A G17C G40U, the self-cleavage came out at 0.

Consider G5A A16C C23A U32A G44A, for which the self-cleavage worked out at 0.02. G5A G19C G40C: the self-cleavage amounted to 0.07.

As to G5A C13G G27A A41C, the self-cleavage came out at 0.05.

Consider G5A G30A A41G, for which the self-cleavage is 0.06.

On to G5A U9C C46A, for which the self-cleavage came to 0.04. With G5A G27A U28A G35A, the self-cleavage came to 0.02.

As for G5A C10U C23A A24C U38A, the self-cleavage was found to be 0.01. Then G5A C31U C37A, with 0.26. G5A C15U C23G G27A: the self-cleavage was determined as 0.04. For G5A A26G G29A G40A, the self-cleavage came to 0.1. Next, G5A C23U G29U: 0.31; G5A U9C G27A U38C: 0; G5A C13U A14U G40A C45A: 0.04. Turning to G5A C15A G17A A24G G29U C42U, the self-cleavage came to 0.03. G5A C18U G35U C45A: the self-cleavage worked out at 0.08. Next, G5A C23A U34A: 0.05; G5A G22A G27U G35C: 0.17; G5A C13G A16G C18A A26U C42A C46G: 0.01.

Regarding G5A C8A G21A U38A A41C, the self-cleavage turned out to be 0.17. Then G5A U9A A24U, with 0.35; and G5A C18A G30U G33A, with 0.05. Take G5A G7C C10U A11U A25U U28C: the self-cleavage was 0.01. Turning to G5A G21A G30U, the self-cleavage amounted to 0.21. Next, G5A G29A U32A A39G: 0.04; G5A G29U A39C: 0.06. Consider G5A A26C C31U G40A C42U, for which the self-cleavage is 0.03. Turning to G5A C8G C13U A14G U28C G36C C37A, the self-cleavage came to 0.07.

On to G5A C31G G33A, for which the self-cleavage was 0.03. As to G5A C10A G44A, the self-cleavage was 0.07. With G5A A26G G30U U38A, the self-cleavage is 0.01. Next, G5A C15U G21C U32A C42A: 0.01; G5A C10A A11G A26U G40U: 0.02. Next, G5A G7C C15U A16C U32C A41U U43C: 0.05; G5A A14U A16U C18A G19A C42U: 0.04; G5A G22A G33U: 0.05. Next, G5A C13U G17U G21A G44C: 0.05. On to G5A C18G G27A G40A, for which the self-cleavage amounted to 0.12. For G5A G7C G21U C45A, the self-cleavage stood at 0.03. Then G5A G7A G44U, with 0.53. Take G5A C10A A25U G33A: the self-cleavage stood at 0.04. For the variant G5A G21U G40U, the self-cleavage was 0.12.

G5A G17A G33U C46U: the self-cleavage was found to be 0.02. Consider G5A C10G G17C G22C G30C, for which the self-cleavage is 0.01. As to G5A G19A C45U, the self-cleavage is 0.09.

For the variant G5A G22C G33C, the self-cleavage was 0.04. As to G5A U9G A16U U20C G36C, the self-cleavage is 0.06. In the case of G5A C13A C15A C23A G33C G40U, the self-cleavage was determined as 0.28.

Regarding G5A G33U C42G U43C, the self-cleavage came to 0.02.

Take G5A A26U A41U: the self-cleavage was 0.11. Turning to G5A C31U A41U C42G, the self-cleavage stood at 0.04. Next, G5A C13G C18U C23A: 0.2. Next, G5A C8U G19C A26U: 0.09. Then G5A G7A G27A C31G, with 0.06; and G5A C10G C18U G19C A24G G30U A39G G40U, with 0.01. Turning to G5A G27A U38G, the self-cleavage came out at 0.02. Next, G5A C13A C15G: 0.1; G5A G30U G40A: 0.03. In the case of G5A C31G C45G, the self-cleavage came out at 0.04. Turning to G5A C8U A16G, the self-cleavage worked out at 0.29. In the case of G5A C8G A14G G17U, the self-cleavage amounted to 0.06. Next, G5A C10G G21C G40U: 0.05; G5A C15A U28G C45U: 0.02; G5A U9A C23G G36A U38A: 0.22.

Source of the values: the RNAGym collection of RNA variant scans (doi:10.7554/elife.90254).
